Source: PMC4336329 (PLoS ONE, 2015)
Screen size: about 310,000 compounds; about 14,000 (4.5%) showed an effect of 50% or more. Effects have a minus sign here. Some of the results follow.

The compounds below were run against human ether-à-go-go-related gene (hERG) potassium channel (human, UniProt Q12809) (assay: primary screen, population patch clamp on CHO cells stably expressing hERG).
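Further: peak tail current of the secondary pulse compared with the same well before compound.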

human ether-à-go-go-related gene (hERG) potassium channel, sequence (Q12809 whole entry, looked up): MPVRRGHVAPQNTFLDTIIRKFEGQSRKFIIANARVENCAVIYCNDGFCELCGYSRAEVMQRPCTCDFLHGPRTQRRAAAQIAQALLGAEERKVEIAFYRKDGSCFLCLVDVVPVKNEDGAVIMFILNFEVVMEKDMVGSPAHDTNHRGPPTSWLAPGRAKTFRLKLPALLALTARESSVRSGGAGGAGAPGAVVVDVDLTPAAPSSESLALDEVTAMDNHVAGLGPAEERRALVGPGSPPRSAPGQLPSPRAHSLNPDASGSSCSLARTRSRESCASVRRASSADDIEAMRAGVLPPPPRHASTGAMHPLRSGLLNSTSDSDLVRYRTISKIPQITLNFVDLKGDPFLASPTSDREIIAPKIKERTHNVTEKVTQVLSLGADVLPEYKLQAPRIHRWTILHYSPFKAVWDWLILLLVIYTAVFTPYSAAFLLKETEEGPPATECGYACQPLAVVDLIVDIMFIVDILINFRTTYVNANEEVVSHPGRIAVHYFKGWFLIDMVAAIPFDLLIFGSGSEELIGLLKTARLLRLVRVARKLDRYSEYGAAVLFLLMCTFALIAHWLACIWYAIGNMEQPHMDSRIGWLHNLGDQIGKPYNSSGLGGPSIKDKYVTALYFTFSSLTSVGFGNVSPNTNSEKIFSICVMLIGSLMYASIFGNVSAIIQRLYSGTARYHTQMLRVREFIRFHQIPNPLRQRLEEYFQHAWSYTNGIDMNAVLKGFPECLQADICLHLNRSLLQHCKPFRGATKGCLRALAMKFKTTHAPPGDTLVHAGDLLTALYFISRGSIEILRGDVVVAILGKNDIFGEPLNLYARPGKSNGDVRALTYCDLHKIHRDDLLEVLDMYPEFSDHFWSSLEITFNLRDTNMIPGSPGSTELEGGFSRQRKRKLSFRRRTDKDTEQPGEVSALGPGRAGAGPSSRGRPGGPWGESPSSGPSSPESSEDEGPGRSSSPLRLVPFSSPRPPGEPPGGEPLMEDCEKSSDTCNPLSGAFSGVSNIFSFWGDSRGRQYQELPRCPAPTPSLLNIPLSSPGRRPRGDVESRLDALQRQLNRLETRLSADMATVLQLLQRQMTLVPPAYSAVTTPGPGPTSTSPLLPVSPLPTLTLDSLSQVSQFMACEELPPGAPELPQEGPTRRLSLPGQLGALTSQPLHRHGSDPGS

SMILES | hERG current change (%, negative = inhibition) at 10uM [%]
C/C(=N/NC(=O)c1ccncc1)c1cc2ccc(O)cc2oc1=O | 13.2
O=C1CC(N2CCSCC2)C(=O)N1CCc1ccccc1 (centres unmarked) | -1.37
CCn1c(SCc2nc3ccccc3[nH]2)nnc1-c1ccncc1 | 3.99
COCC(=O)N1CCCC(C(=O)c2ccc3c4c(cccc24)CC3)C1 (centres unmarked) | -21.2
O=C(O)CSc1nnc(-c2ccc(Cl)cc2)n1-c1ccccc1 | 22.6
CCOC(=O)N1CCN(C(=O)c2ccc(-n3c(C)ccc3C)cc2)CC1 | -2.56
Nc1cc(=O)[nH]c(SCC(=O)N2N=C(c3ccc4ccccc4c3)CC2c2ccccc2)n1 (centres unmarked) | 5.9
Cc1nn(C)cc1C(=O)NNC(=S)Nc1ccc(Cl)cc1 | 12.6
COc1cc(NC(=O)CNc2cccc(S(=O)(=O)N3CCCC3)c2)cc(OC)c1 | 5.86
Cc1c(Cl)cccc1NC(=O)Nn1cnnc1 | 19.6
COc1ccc(OC)c(-n2nnnc2SCC(=O)O)c1 | 8.49
CCn1cc(C(=O)NC(=S)Nc2ccccc2Br)cn1 | 3.21
O=C(CCCOc1ccc(Cl)cc1Cl)NCc1ccncc1 | -31.9
CCCn1c(SCC(=O)NC2CCCC(C)C2C)n[nH]c1=O (centres unmarked) | 12.7
COc1cc(C)c(NC(=O)C(=S)NCc2ccccc2)cc1C | 23.3
O=C(O)c1cccc(-n2cc(-c3cccc(C(F)(F)F)c3)cn2)c1 | 27
Cc1ccc(-n2cccc2/C=C2\C(=N)N3N=C(c4ccco4)SC3=NC2=O)cc1 | 1.06
COCCNC(=O)c1ccc(C)cc1C | 18.5
CC(Sc1ccc(Cl)cc1)C(=O)N(C)CC(=O)Nc1ccc(N2CCOCC2)cc1 (centres unmarked) | -49.8
O=C(/C=C\Nc1ccccn1)c1ccccc1 | -1.57

SMILES | hERG current change (%, negative = inhibition) at 10uM [%]
C/C(=N\Nc1nc2ccccc2s1)c1ccc(Br)s1 | 1.44
O=C(N/N=C/c1ccc2cccc(OCc3ccccc3)c2n1)c1ccc(Br)cc1 | -14
CC(=O)CCn1cnc([N+](=O)[O-])n1 | 23
COc1cc(/C=C(/C#N)c2ccccc2)ccc1Oc1ccc([N+](=O)[O-])cn1 | 16.4
N#CC1(N2CCN(C(=O)c3ccccc3)CC2)CCCCC1 | 30.1
CCOC(=O)C1CCN(C(=O)NC23CC4CC(CC(C4)C2)C3)CC1 | -13.7
Cc1[nH]c2ccccc2c1Cc1nnc(SCCC#N)o1 | 5.74
COCCNC(=O)/C(C#N)=C/C(C)=C/c1ccccc1 | 12
O=C(Nc1ccc2c(c1)OCCO2)N1CCN(c2ccc(F)cc2)CC1 | -5.49
COc1ccccc1CNC(=O)C1CCC(CNS(=O)(=O)c2cccs2)CC1 (centres unmarked) | -27
Cc1ncc([N+](=O)[O-])n1CCOC(N)=O | 15.1
CCCCCN(C(=O)CCC(=O)OCC(=O)N1CCCCC1C)c1c(N)n(CCCC)c(=O)[nH]c1=O (centres unmarked) | 3.75
O=C(Cc1ccccc1F)NCC(c1ccco1)N1CCCCC1 (centres unmarked) | 17.7
COc1ccc(OC)c(CN2CCCCCC2)c1.O=C(O)C(=O)O | 15.7
Cc1ccn2c(Nc3ccc4c(c3)OCO4)c(-c3ccc(O)cc3)nc2c1 | -49
O=C(NCc1ccco1)c1ccc(S(=O)(=O)N2CCCCC2)cc1 | 14.2
CC(=O)Nc1ccc(Sc2ncccc2C(=O)Nc2ccc(OC(F)(F)F)cc2)cn1 | -7.23
O=C(NCc1ccc(Cl)cc1)c1ccc(OCC2CCCO2)cc1 (centres unmarked) | 8.62
CCOC(=O)Cc1c[nH]c(=S)[nH]c1=O | 21.2
CN(Cc1ccon1)Cc1cn(Cc2ccccc2)nc1-c1ccc2c(c1)OCO2 | -19.3

SMILES | hERG current change (%, negative = inhibition) at 10uM [%]
COc1ccc(C(CC(=O)N2CCCC2)c2c(OC)cc(OC)c3c(-c4ccccc4)cc(=O)oc23)cc1 (centres unmarked) | -5.46
CCc1ccccc1NC(=O)Nn1cnnc1 | 18
Cc1cc(-n2c(C)cc(C(=O)CSc3nc(N)cc(=O)[nH]3)c2C)no1 | -0.0997
COc1cccc(CN2C(=NC(=O)C3CC3)SC3CS(=O)(=O)CC32)c1 (centres unmarked) | 15.5
C/C(=N\NC(=O)C1CC1)c1ccc(OC(F)F)cc1 | 9.94
Cc1nn(-c2ccccc2)c2c1/C(=N/O)CC(C)(C)C2 | -18.1
Cc1ccc(-c2nn(-c3cccc(F)c3)cc2CNCCc2ccncc2)o1 | -53.6
CC(=O)Nc1ccc2c(CN3C(=O)NC(C)(c4ccc(C)cc4)C3=O)cc(=O)oc2c1 (centres unmarked) | 14.3
N#CCOc1ccccc1/C=C/c1nc2ccccc2c(=O)[nH]1 | 11.3
O=C(Nc1ccc2c(c1)OCO2)c1cnn2c1NC(c1ccco1)CC2C(F)(F)F (centres unmarked) | -4.57
CC(=O)Cc1nsc(NC(=O)c2ccc(-c3ccc(Cl)cc3Cl)o2)n1 | 32.9
Cc1cc(CN(C)C)c(OC(=O)N(C)C)cc1C.Cl | 16.1
CCOC(=O)Cn1c2ccc(OC)cc2c2nc3ccccc3nc21 | -5.21
COC(=O)c1cccc(NCN2C(=O)c3ccccc3C2=O)c1 | 1.11
CC(=O)N1CCN(S(=O)(=O)c2cccc(C(=O)NNC(=O)Cn3nc(C)cc3C)c2)CC1 | 10.1
Cc1cccc(Nc2nc3ccccc3n3nnnc23)c1 | 18.6
COc1cccc(/C=C(\C#N)c2nc3ccc(C)cc3[nH]2)c1OCC(=O)O | 12.4
CCN(CC(=O)NCc1ccc(Cl)cc1)C(=O)c1cc(OC)cc(OC)c1 | -48.4
Cl.Clc1ccccc1CN(Cc1ccco1)Cc1nnnn1C1CCCC1 | 10.1
